Reference: PubChem BioAssay AID540267 (National Center for Advancing Translational Sciences (NCATS), 2011)
In all, about 340,000 compounds went through this assay and about 530 (0.16%) were called active. The shares of active, inactive and inconclusive entries below differ from those in the screen. No stated cut-off is given here; in the data, active means activity change below about -80%; inconclusive means between about -30% and that limit; inactive means weaker than that.
On the % scale 0 is the no-effect control and ±100 the full control effect.

Assay: Small Molecules that selectively kill Giardia lamblia: qHTS;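 further: parasites exposed to compound for two days anaerobically before the ATP read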
Conditions: Giardia lamblia trophozoite viability; at 7.66 µM; active compounds read low
Method in brief: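 Giardia trophozoites, 100 cells per well, were exposed to compounds for 48 hrs at 37 deg C under anaerobic conditions; viability was then read as ATP content by bioluminescence after 15-30 min at room temperature.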
With `Cc1ncc([N+](=O)[O-])n1CCOC(=O)c1ccc(Cl)cc1Cl` the activity change was inconclusive: -67.4% [inhibitor].
For `CCN1CCN(C(=O)c2cc(COc3ccc(F)cc3F)on2)[C@@H](C)C1=O`, the activity change was inconclusive: -41.7% [inhibitor].
With `CC1CN(S(=O)(=O)c2ccc(C(=O)Nc3ccccc3F)cc2)CC(C)O1` (stereo not given) the activity change was inactive: 49.2%.
For `CCOC(=O)c1csc(NC(=O)c2cc3ccccc3o2)n1`, the activity change was inconclusive: -31.5% [inhibitor].
In the case of `O=C(C1=C(O)C(=O)N(c2nc3ccc(Cl)cc3s2)C1c1ccco1)c1ccco1` (stereo not given), the activity change is reported as inconclusive: -31.4% [inhibitor].
With `Nc1nc(N)c(Cc2ccc(Cl)cc2Cl)c(N)n1` the activity change was inactive: 19.4%.
For `O=C(Nc1nnc(SCC(=O)N2CCOCC2)s1)c1ccccc1Cl`, the activity change was inconclusive: -55.1% [inhibitor].
For `COCCNc1nc(CSc2ccccc2)nc2sc(C)c(C)c12`, the activity change was inconclusive: -31% [inhibitor].
In the case of `O=C(CN1C(=O)C2C3C=CC(C4CC34)C2C1=O)NCc1ccco1` (stereo not given), the activity change is reported as inconclusive: -31.1% [inhibitor].
With `COc1ccc(C(=S)NC2CCCCC2)cc1` the activity change was inconclusive: -60.7% [inhibitor].
For `COc1cc(NC(=O)c2cc(OC)c(OC)c(OC)c2)c2ncccc2c1`, the activity change was inconclusive: -31.9% [inhibitor].
For `O=C(COc1ccccc1-c1ccccc1)N/N=C/c1cccc2ccccc12`, the activity change was inconclusive: -31.8% [inhibitor].
With `O=C(Nc1ccc(F)cc1)N1CCOCC1` the activity change was inactive: -10.3%.
For `CC(=O)c1c(C)n([O-])c2cc(F)c(F)cc2[n+]1=O`, the activity change was inconclusive: -59.6% [inhibitor].
With `O=[N+]([O-])C(/C=C(\Cl)[N+](=O)[O-])=C(N1CCCCC1)N1CCCCC1` the activity change was active: -82%.
For `O=C(COC(=O)c1ccccc1O)Nc1cccc2ccccc12`, the activity change was inactive: -12%.
With `CC(=O)c1cccc(NC(=O)NCc2ccccn2)c1` the activity change was inconclusive: -38% [inhibitor].
With `Cc1cc(C)c2c(n1)sc1c(=O)n(-c3ccccc3)c(=O)[nH]c12` the activity change was inconclusive: -30.5% [inhibitor].
In the case of `CCc1ccc(-c2nc(SCC(=O)c3c(N)n(C4CC4)c(=O)[nH]c3=O)n[nH]2)cc1`, the activity change is reported as inconclusive: -30.7% [inhibitor].
For `Cc1nc(NC(=O)c2ccc(Cl)cc2)sc1Cc1ccc2c(c1)OCO2`, the activity change was inconclusive: -32.6% [inhibitor].
In the case of `Cn1nnc(NC(=O)c2ccc(C(C)(C)C)cc2)n1`, the activity change is reported as inconclusive: -42.9% [inhibitor].
With `OCCN1CCN(C(=S)c2ccc(Br)cc2)CC1` the activity change was inconclusive: -30.9% [inhibitor].
In the case of `Brc1ccc2c(c1)CN1CCCC1=N2`, the activity change is reported as inconclusive: -30.7% [inhibitor].
In the case of `O=C1/C(=C\c2cccnc2)CN(Cc2ccccc2)C/C1=C\c1cccnc1`, the activity change is reported as inconclusive: -39.3% [inhibitor].
In the case of `CC(C)(C)n1nnnc1C(c1cccs1)N1CCN(Cc2ccc3c(c2)OCO3)CC1` (stereo not given), the activity change is reported as inactive: 6.17%.
In the case of `CC1=Nc2cc(C(=O)O)ccc2Sc2ccc(C)cc21`, the activity change is reported as inactive: 7.34%.
In the case of `CCCN(CC(=O)Nc1ccc(F)c(F)c1F)C(=O)c1cc(S(=O)(=O)N(C)C)ccc1N1CCCC1`, the activity change is reported as inconclusive: -39.1% [inhibitor].
With `COC(=O)c1c(C(=O)OC)c(-c2ccc(OC)cc2)n2c1CS(=O)(=O)C2` the activity change was inconclusive: -39.9% [inhibitor].
For `O=C(NCCCN1CCN(CCCNC(=O)c2cccc(Cl)c2)CC1)c1cccc(Cl)c1`, the activity change was inactive: 14.6%.
In the case of `CC(=O)c1cc2c(cc1NS(=O)(=O)c1ccc(C)cc1)OCCO2`, the activity change is reported as inconclusive: -38% [inhibitor].
For `COc1cc(NC(=O)CN(C)C2CCCCC2)c(C)cc1[N+](=O)[O-]`, the activity change was inactive: 3.59%.
With `Cc1cnc([N+](=O)[O-])n1CCOC(=O)NC(=O)c1c(F)cccc1F` the activity change was inconclusive: -66.2% [inhibitor].
For `O=C(c1cc(Cl)ccc1Cl)N1CCN(Cc2ccccc2)CC1`, the activity change was inconclusive: -50.7% [inhibitor].
With `Clc1ccc2c(N/N=C/c3cccc(Br)c3)ccnc2c1` the activity change was inconclusive: -50.3% [inhibitor].
In the case of `COc1ccc(NC(=O)[C@@H]2CCCN2C(=O)c2cccs2)cc1S(=O)(=O)N1CCCCC1`, the activity change is reported as inconclusive: -42.3% [inhibitor].
With `COc1cc(C2C3=C(COC3=O)Oc3cc4c(cc32)OCO4)cc(OC)c1OC(C)=O` (stereo not given) the activity change was inconclusive: -32.1% [inhibitor].
In the case of `Cc1cnc(=O)[nH]c1SCc1cccc([N+](=O)[O-])c1`, the activity change is reported as inconclusive: -35.1% [inhibitor].
With `COc1ccc(NC(=O)C/C(C)=N/NC(=O)c2cnccn2)cc1` the activity change was inconclusive: -40.4% [inhibitor].
In the case of `CCCCc1ccc(NC(=O)CSc2nc(=O)n(CCN3CCOCC3)c3c2CCC3)cc1`, the activity change is reported as inactive: -8.31%.
In the case of `CCOc1ncccc1C(=O)OCC(=O)c1c[nH]c2ccccc12`, the activity change is reported as inconclusive: -38.4% [inhibitor].
In the case of `Nc1c(Cl)cc(C2=NCCn3c2c2ccc([N+](=O)[O-])cc2[n+]3[O-])cc1Cl`, the activity change is reported as inconclusive: -34.9% [inhibitor].
With `Cc1ncc([N+](=O)[O-])n1CCN1C(=O)c2ccccc2C1=O` the activity change was inconclusive: -69.8% [inhibitor].
In the case of `CCOC(=O)Cc1csc(NC(=O)/C=C\c2ccccc2Cl)n1`, the activity change is reported as inconclusive: -33.3% [inhibitor].
In the case of `CC(C)(C)S(=O)N1Cc2cc(CO)ccc2[C@@H]1CCO` (stereo not given in full), the activity change is reported as inconclusive: -30.5% [inhibitor].
For `CCOC(=O)N1CCC(NC(=O)c2ccc(CS(=O)c3ccc(Cl)cc3)o2)CC1` (stereo not given), the activity change was inconclusive: -34.1% [inhibitor].
For `O=C(CSc1cc(Cl)ccc1Cl)NC1CCCc2ccccc21` (stereo not given), the activity change was inactive: -13.9%.
With `Cc1cccc(CNc2ncnc3ccc(-c4ccc5c(c4)OCCO5)cc23)c1` the activity change was inactive: 3.17%.
For `COc1ccc(Cc2nnc(NC(=O)c3cc(OC)c(OC)c(OC)c3)s2)cc1OC`, the activity change was inconclusive: -30.3% [inhibitor].
For `Cc1c[n+]([O-])cc(C)c1Oc1ccccc1`, the activity change was inconclusive: -31.3% [inhibitor].
In the case of `O=C(NNC(=S)Nc1ccccc1)C1CCCCC1`, the activity change is reported as inactive: 7.99%.
In the case of `CC12CCC(=O)C=C1CCC1C2C(=O)CC2(C)C1CC[C@]2(O)C(=O)CO` (stereo not given in full), the activity change is reported as inconclusive: -30.3% [inhibitor].
For `CN(C(=O)COC(=O)c1ccc(S(=O)(=O)N2CCOCC2)cc1)c1ccccc1`, the activity change was inconclusive: -34.4% [inhibitor].
With `CC1CCCN(c2ccc3nc4ccccc4c(=O)n3n2)C1` (stereo not given) the activity change was inconclusive: -58.5% [inhibitor].
With `O=C(CN1CCN(c2ccccc2)CC1)Nc1ccccc1C(F)(F)F` the activity change was inactive: 6.68%.
In the case of `O=c1[nH]cnc2scc(-c3cccs3)c12`, the activity change is reported as inconclusive: -32.2% [inhibitor].
In the case of `Cc1cc(C)n(CC(O)COc2ccc(Cl)cc2)n1` (stereo not given), the activity change is reported as inactive: -9.75%.
For `O=C(CN1CCN(S(=O)(=O)c2cccc(F)c2)CC1)Nc1ccnn1C1CCCC1`, the activity change was inconclusive: -34.6% [inhibitor].
With `COc1cccc(C(=O)NCC(c2ccco2)N2CCc3ccccc3C2)c1` (stereo not given) the activity change was inactive: -10.9%.
With `CN(Cc1nc2ccccc2c(=O)[nH]1)C(=O)COc1ccccc1Cc1ccccc1` the activity change was inactive: -0.32%.
With `O=C(C1CCN(S(=O)(=O)c2ccccc2)CC1)N1CCC1` the activity change was inactive: 5.98%.
With `Cc1ccc(CCN2CC(C(=O)O)CC2=O)cc1` (stereo not given) the activity change was inconclusive: -30.6% [inhibitor].
With `NS(=O)(=O)c1ccc(Nc2ncccc2[N+](=O)[O-])cc1` the activity change was active: -91%.
In the case of `CCc1nnc(NC(=O)CSc2ncc(-c3ccccc3)n2C)s1`, the activity change is reported as inconclusive: -31.2% [inhibitor].
In the case of `CCNc1nc(NC(C)CC)nc(Oc2ccc(OCC)nn2)n1` (stereo not given), the activity change is reported as inactive: -18.9%.
With `O=[N+]([O-])c1ccc(/C=N/Nc2ncccc2[N+](=O)[O-])s1` the activity change was active: -93.1%.
In the case of `COc1ccc(-c2csc(NC(=O)c3ccc(S(=O)(=O)N4CCc5ccccc5C4)cc3)n2)c(OC)c1`, the activity change is reported as inactive: 1.77%.
In the case of `COc1cc(NC(=O)c2ccc(Br)cc2)c(OC)cc1NC(=O)c1ccccc1`, the activity change is reported as inconclusive: -30.2% [inhibitor].
For `CN1C2=CC=CC=CC2=[N+](C)C12C=CC(=[N+]([O-])[O-])C=C2[N+](=O)[O-]` (stereo not given), the activity change was inconclusive: -39.8% [inhibitor].
In the case of `O=C(N/N=C/c1ccco1)c1ccncc1`, the activity change is reported as inactive: -3.96%.
For `COCCNC(=S)NN=C1CCCCC1`, the activity change was inactive: 2.1%.
With `CC1(C)CC(=O)C(C=NCc2ccccn2)=C(O)C1` the activity change was inactive: -3.82%.
For `Cc1ccc2nc(NC(=S)NC(=O)c3ccco3)sc2c1`, the activity change was inconclusive: -61.2% [inhibitor].
With `Cc1ccc(OCC(=O)NNC(=S)NC(=O)C(C)(C)C)c(Br)c1` the activity change was inconclusive: -30.4% [inhibitor].
For `O=C(c1ccc([N+](=O)[O-])s1)N1CCN(c2ccccc2)CC1`, the activity change was inconclusive: -58.6% [inhibitor].
With `Cc1ccc(S(=O)(=O)N(C)CC(=O)Oc2ccc(-c3nnco3)cc2)cc1` the activity change was inactive: 7.41%.
With `Cc1ccsc1C(=O)Nc1ccccc1N1CCCC1` the activity change was inactive: -17.2%.
For `O=C(N/N=C\c1ccc([N+](=O)[O-])o1)C1COc2ccccc2O1` (stereo not given), the activity change was active: -82.4%.
With `CC(C)Oc1ccc(C(=O)Nc2nnc(C3=COCCO3)o2)cc1` the activity change was inactive: -7.93%.
With `CN1CCN(C(=S)c2cn(Cc3ccc(F)cc3)c3ccccc23)CC1` the activity change was inconclusive: -30.7% [inhibitor].
For `Cc1nn(CCC(=O)O)c2nc(-c3cccnc3)cc(C(F)(F)F)c12`, the activity change was inactive: 1.85%.
